Measurements reported in patent publication US11000038B2, “Pyridone compounds and agricultural and horticultural fungicides containing the same as active ingredients” (priority 2017, dated 2021).

What was measured:
[1] = test system: cabbage Alternaria sooty spot fungi (Alternaia brassicicola); test: Test Example C: cabbage Alternaria sooty spot, spray treatment of cabbage plants; format: in vivo; settings: cabbage Alternaria sooty spot, spray treatment
Excerpt: [Test Example C] Cabbage Alternaria Sooty Spot
Test plants (cabbage variety: Shikidori) were cultivated until the cotyledons extended after the sowing of seeds.
<Control Value> Control value=100{1−(n/3)}

[2] = test system: barley powdery mildew fungi (Blumeria graminis f. sp. hordei); test: Test Example D: barley powdery mildew, spray treatment of barley plants; settings: barley powdery mildew, spray treatment
[3] = test system: wheat brown rust fungi (Puccinia recondita); test: Test Example E: wheat brown rust, spray treatment of wheat plants; format: in vivo; settings: wheat brown rust, spray treatment
[4] = test system: gray mold fungi (Botrytis cinerea); test: Test Example B: tomato gray mold, spray treatment of tomato plants; settings: tomato gray mold, spray treatment
[5] = test system: grape downy mildew fungus (Plasmopara viticola); test: Test Example G: grape downy mildew, spray treatment of grape plants; settings: grape downy mildew, 250 ppm spray, 7 to 10 days after inoculation

Row | Compound | Test C control value [1] | Test D control value [2] | Test E control value [3] | Test B control value [4] | Test G control value [5]
1 | CCc1c(-c2ccccc2)n(-c2cccc(C)c2C)cc(C)c1=O [Compound 503] | H (H shows the control value of more than 50%) | L (L shows the control value of 50% or less) | L (L shows the control value of 50% or less) | L (L shows the control value of 50% or less) | L (L shows the control value of 50% or less)
2 | CCc1c(-c2ccccc2)n(-c2cccc(F)c2C)cc(Br)c1=O [Compound 505] | H (H shows the control value of more than 50%) | H (H shows the control value of more than 50%) | H (H shows the control value of more than 50%) | H (H shows the control value of more than 50%) | L (L shows the control value of 50% or less)
3 | CCc1c(-c2ccccc2)n(-c2cccc(Cl)c2C)cc(Br)c1=O [Compound 506] | H (H shows the control value of more than 50%) | H (H shows the control value of more than 50%) | H (H shows the control value of more than 50%) | H (H shows the control value of more than 50%) | L (L shows the control value of 50% or less)
4 | CCc1c(-c2c(F)cccc2F)n(-c2ccccc2C)cc(Br)c1=O [Compound 507] | H (H shows the control value of more than 50%) | L (L shows the control value of 50% or less) | L (L shows the control value of 50% or less) | H (H shows the control value of more than 50%) | L (L shows the control value of 50% or less)
5 | CCc1c(-c2c(F)cccc2F)n(-c2ccccc2C)cc(C)c1=O [Compound 508] | H (H shows the control value of more than 50%) | L (L shows the control value of 50% or less) | H (H shows the control value of more than 50%) | H (H shows the control value of more than 50%) | L (L shows the control value of 50% or less)
6 | CCc1ccccc1-n1cc(C)c(=O)c(CC)c1-c1c(F)cccc1F [Compound 510] | H (H shows the control value of more than 50%) | L (L shows the control value of 50% or less) | L (L shows the control value of 50% or less) | H (H shows the control value of more than 50%) | L (L shows the control value of 50% or less)
7 | CCc1c(-c2c(F)cccc2F)n(-c2ccccc2Cl)cc(Br)c1=O [Compound 511] | H (H shows the control value of more than 50%) | H (H shows the control value of more than 50%) | H (H shows the control value of more than 50%) | H (H shows the control value of more than 50%) | L (L shows the control value of 50% or less)
8 | CCc1c(-c2c(F)cccc2F)n(-c2ccccc2Cl)cc(C)c1=O [Compound 512] | H (H shows the control value of more than 50%) | H (H shows the control value of more than 50%) | H (H shows the control value of more than 50%) | H (H shows the control value of more than 50%) | L (L shows the control value of 50% or less)
9 | CCc1c(-c2c(F)cc(F)cc2F)n(-c2cccc(OC)c2C)cc(C)c1=O [Compound 514] | H (H shows the control value of more than 50%) | H (H shows the control value of more than 50%) | H (H shows the control value of more than 50%) | H (H shows the control value of more than 50%) | H (H shows the control value of more than 50%)
10 | CCc1c(-c2c(F)cc(F)cc2F)n(-c2cccc(Cl)c2C)cc(Br)c1=O [Compound 515] | H (H shows the control value of more than 50%) | H (H shows the control value of more than 50%) | H (H shows the control value of more than 50%) | H (H shows the control value of more than 50%) | L (L shows the control value of 50% or less)
11 | CCc1ccccc1-n1cc(C)c(=O)c(C)c1-c1ccccc1 [Compound 516] | L (L shows the control value of 50% or less) | L (L shows the control value of 50% or less) | L (L shows the control value of 50% or less) | L (L shows the control value of 50% or less) | L (L shows the control value of 50% or less)
12 | Cc1ccc(Cl)cc1-n1cc(C)c(=O)c(C)c1-c1ccccc1 [Compound 517] | L (L shows the control value of 50% or less) | L (L shows the control value of 50% or less) | L (L shows the control value of 50% or less) | H (H shows the control value of more than 50%) | L (L shows the control value of 50% or less)
13 | Cc1ccc(Br)cc1-n1cc(C)c(=O)c(C)c1-c1ccccc1 [Compound 518] | L (L shows the control value of 50% or less) | L (L shows the control value of 50% or less) | L (L shows the control value of 50% or less) | H (H shows the control value of more than 50%) | L (L shows the control value of 50% or less)
14 | CCc1c(-c2c(F)cc(F)cc2F)n(-c2cc(C)ccc2C)cc(Br)c1=O [Compound 519] | H (H shows the control value of more than 50%) | H (H shows the control value of more than 50%) | H (H shows the control value of more than 50%) | H (H shows the control value of more than 50%) | L (L shows the control value of 50% or less)
15 | CCc1c(-c2c(F)cc(F)cc2F)n(-c2cc(C)ccc2C)cc(C)c1=O [Compound 520] | H (H shows the control value of more than 50%) | H (H shows the control value of more than 50%) | H (H shows the control value of more than 50%) | H (H shows the control value of more than 50%) | L (L shows the control value of 50% or less)
16 | CCc1c(-c2c(F)cc(F)cc2F)n(-c2cc(F)ccc2C)cc(Br)c1=O [Compound 521] | H (H shows the control value of more than 50%) | L (L shows the control value of 50% or less) | H (H shows the control value of more than 50%) | H (H shows the control value of more than 50%) | L (L shows the control value of 50% or less)
17 | CCc1c(-c2c(F)cc(F)cc2F)n(-c2cc(F)ccc2C)cc(C)c1=O [Compound 522] | H (H shows the control value of more than 50%) | H (H shows the control value of more than 50%) | H (H shows the control value of more than 50%) | H (H shows the control value of more than 50%) | L (L shows the control value of 50% or less)
18 | CCc1c(-c2c(F)cccc2F)n(-c2cccc(Cl)c2C)cc(Br)c1=O [Compound 524] | H (H shows the control value of more than 50%) | L (L shows the control value of 50% or less) | H (H shows the control value of more than 50%) | H (H shows the control value of more than 50%) | L (L shows the control value of 50% or less)
19 | CCc1c(-c2c(F)cccc2F)n(-c2cccc(Cl)c2C)cc(C)c1=O [Compound 525] | H (H shows the control value of more than 50%) | H (H shows the control value of more than 50%) | H (H shows the control value of more than 50%) | H (H shows the control value of more than 50%) | L (L shows the control value of 50% or less)
